Out of some 340,000 compounds screened, about 6,900 (2%) were called active. Rule as the data show it: active = inhibition above about 30%; inactive = below that, where a call was filed. This is a selection; strong and weak results do not stand in their true shares. Entries without a call were filed so in the source.

Chain of UniProt P14416 (P14416 whole entry, looked up): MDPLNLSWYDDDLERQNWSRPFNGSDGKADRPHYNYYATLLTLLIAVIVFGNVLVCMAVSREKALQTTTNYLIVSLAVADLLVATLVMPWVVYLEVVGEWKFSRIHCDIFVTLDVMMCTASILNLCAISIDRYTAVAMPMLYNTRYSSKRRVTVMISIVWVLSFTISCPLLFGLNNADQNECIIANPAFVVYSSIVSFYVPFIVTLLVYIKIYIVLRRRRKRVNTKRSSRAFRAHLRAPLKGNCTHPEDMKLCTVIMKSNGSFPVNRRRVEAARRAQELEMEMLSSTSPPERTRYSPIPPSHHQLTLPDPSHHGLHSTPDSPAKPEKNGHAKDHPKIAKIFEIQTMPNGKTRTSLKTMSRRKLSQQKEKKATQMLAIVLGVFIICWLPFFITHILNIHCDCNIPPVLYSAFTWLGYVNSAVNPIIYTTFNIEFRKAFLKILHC

This assay concerns the target D(2) dopamine receptor (Homo sapiens) (UniProt P14416). Description: HTS Assay for Allosteric Antagonists of the Human D2 Dopamine Receptor: Primary Screen for Antagonists. Also: 0% is about no effect. The settings on record: HEK293 TREx D2 cells, calcium flux, dopamine EC80; at 10 µM; stronger effect = higher value. Summed up:
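Calcium mobilization kinetics were recorded at 1 s intervals in tetracycline-induced HEK293 T-REx D2 cells, first for 180 s after compound addition and then 180 s after EC80 dopamine.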
By inhibition is commonly meant the relative decrease from the control value, in per cent. Consider `Cc1cccc(C)c1NC(=O)NCCc1c[nH]c2ccccc12`, for which the inhibition was -0.886%. Consider `CCCNC(=O)C1CCC(Cn2c(=O)c3sccc3n(Cc3ccccc3F)c2=O)CC1` (stereo not drawn), for which the inhibition was -13%. Turning to `CCN(CC)S(=O)(=O)c1nnc(NC(=O)COc2ccccc2F)s1`, the inhibition came out at 6.46%.

In the case of `Nc1c(C(=O)Nc2ccc(OC(F)(F)F)cc2)nnn1Cc1ccccc1`, the inhibition stood at 4.28%.

With `CCOc1ccc(CNC(=O)CSc2cc(=O)n(CC)c3ccccc23)cc1`, the inhibition is -15.9%.

Turning to `Fc1ccc(CNc2ncnc3onc(-c4ccc(F)cc4)c23)cc1`, the inhibition is -0.0004%. Take `CCc1cccc(C)c1Nc1c(-c2ccccc2)nc2sccn12`: the inhibition is 11.1%. On to `O=C(C1COc2ccccc2O1)N(Cc1cccnc1)c1nc2ccc(Cl)cc2s1` (stereo not drawn), for which the inhibition is -10.7%. The same measure for `Cc1ccc(C#N)c(=O)n1CC(=O)Nc1ccccc1C(F)(F)F`: -20.4%.

On to `CSC1=NC2(CCN(C(=O)NC3CCCCC3)CC2)N=C1c1ccc(C)cc1`, for which the inhibition was -28.4%. Take `COc1ccc(N2Cc3cccc(C(=O)Nc4cc(C)cc(C)c4)c3C2=O)cc1`: the inhibition was determined as 6.6%. With `Cc1cc(F)ccc1NC(=O)CCS(=O)(=O)c1ccc2c(c1)CC(C)N2C(=O)C1CC1` (stereo not drawn) the figure was -4.03%; with `NC(=O)C1CCN(C(=O)c2cccc(NC(=O)c3nsc4ccccc34)c2)CC1`, 12.6%. Turning to `Cc1noc(-c2ccc(-c3noc(-c4cccc(F)c4)n3)cc2)n1`, the inhibition was 2.23%.

Take `O=C(C1COc2ccccc2O1)N1CCN(c2nc3ccc(F)cc3s2)CC1` (stereo not drawn): the inhibition was determined as 10.6%. For the compound `O=C(COCc1cc(-c2ccc3c(c2)OCO3)on1)N1CCN(c2cccc(Cl)c2)CC1`, the inhibition turned out to be 3.29%. `O=c1cc(-c2ccccc2)nc(SCc2nc(-c3ccc(Cl)cc3)no2)[nH]1`: the inhibition stood at 3.18%. For `Cc1ccc(S(=O)(=O)N(Cc2nc(-c3cccc(C)c3)no2)C2CCCCC2)cc1`, the inhibition came to 3.56%. In the case of `CNS(=O)(=O)c1cn(CC(=O)N2CCN(c3cccc(C)c3C)CC2)cc1S(=O)(=O)NC`, the inhibition is -5.18%. For the compound `CCCCn1c(SCC(=O)c2ccc(O)cc2O)nc2cc(S(N)(=O)=O)ccc21`, the inhibition was active: 31.6%. With `CCN1CCN(C(=O)c2cnn(-c3cccc(Cl)c3)c2C2CCN(C(=O)OC(C)(C)C)CC2)CC1`, the inhibition was -2.07%. For `Clc1ccc2c(c1)NC(c1ccncc1)=NC(c1cccs1)=N2`, the inhibition stood at 6.65%.

As to `COc1cc(CNC(=O)c2ccc3nc(CCc4ccccc4)oc3c2)cc(OC)c1OC`, the inhibition stood at 4.99%. With `FC(F)(F)c1ccccc1CN1CCCC(N2CCN(c3ccccc3)CC2)C1` (stereo not drawn) the figure was active: 78.4%. With `COC(=O)c1c(SC)nc2ccccc2c1OCc1ccc(Cl)cc1` the figure was -4.65%; with `O=c1c2cc3c(cc2n(Cc2ccc(F)cc2)c(=O)n1Cc1nc(-c2ccccc2)no1)OCO3`, 0.035%. For `Cc1cccc(NC(=O)c2ccc3snnc3c2)c1C`, the inhibition was -6.2%.

`CC(=O)c1ccc2noc(-c3ccc(F)cc3)c2c1`: the inhibition was active: 34.4%.

(Values after PubChem BioAssay AID485344 (National Center for Advancing Translational Sciences (NCATS), 2010).)
